Data reported in patent publication US20240199692A1 (priority 2019, published 2024).
For part of these data: Part of at least one peptide drawing is inferred or uncertain, most often the ends. At least one structure is not confirmed: it was looked up by name or label, or the drawing left a doubt.

Target: T1, MMP2 (Homo sapiens, UniProt P08253)
T1 sequence (P08253 110-660): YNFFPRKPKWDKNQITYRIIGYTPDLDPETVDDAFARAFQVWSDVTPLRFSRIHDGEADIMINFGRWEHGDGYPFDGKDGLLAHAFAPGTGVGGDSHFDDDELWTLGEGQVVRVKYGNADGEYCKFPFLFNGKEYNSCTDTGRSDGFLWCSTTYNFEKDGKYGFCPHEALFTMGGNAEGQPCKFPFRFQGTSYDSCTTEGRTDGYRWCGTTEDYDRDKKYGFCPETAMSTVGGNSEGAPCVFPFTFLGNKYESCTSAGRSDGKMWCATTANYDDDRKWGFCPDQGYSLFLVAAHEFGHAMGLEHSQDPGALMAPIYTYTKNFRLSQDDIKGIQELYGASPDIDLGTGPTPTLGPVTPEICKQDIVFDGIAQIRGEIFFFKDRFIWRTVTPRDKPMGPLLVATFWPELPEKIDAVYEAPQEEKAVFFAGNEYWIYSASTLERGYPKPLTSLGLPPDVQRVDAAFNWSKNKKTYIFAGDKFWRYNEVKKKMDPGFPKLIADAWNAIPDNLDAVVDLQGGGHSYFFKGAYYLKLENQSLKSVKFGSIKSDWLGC
Test: Inhibitory effects on human MMP2 (Method 2), enzyme assay with MOCAc-Pro-Leu-Gly-Leu-A2pr(Dnp)-Ala-Arg-NH2 substrate, 384-well
Type: biochemical
Settings: Test Example No. 1-2 (Method 2, 384-well microplate)

| Compound | IC50 [nM] |
| --- | --- |
| CC(C)C[C@H](NC(=O)[C@@H]1C[C@H](N)CN1C(=O)C[C@H](NS(=O)(=O)c1ccc(NC(=O)c2ccc(C(N)=O)cc2)cc1)C(=O)O)C(=O)N(C)[C@@H](CCC(=O)O)C(=O)NCCCCC(N)=O [Compound 2] | 2.04 |
| CC(C)C[C@H](NC(=O)[C@@H]1C[C@H](N)CN1C(=O)CC[C@H](NS(=O)(=O)c1ccc(NC(=O)c2ccc(C(N)=O)cc2)cc1)C(=O)O)C(=O)N(C)[C@@H](CCC(=O)O)C(=O)NCCCCC(N)=O [Compound 4] | 0.128 |
| CC(C)[C@H](NC(=O)[C@@H]1C[C@H](N)CN1C(=O)CC[C@@H](NS(=O)(=O)c1ccc(NC(=O)c2ccc(C(N)=O)cc2)cc1)C(=O)O)C(=O)N(C)[C@@H](CCC(=O)O)C(=O)NCCCCC(N)=O [Compound 5] | 0.608 |
| CC[C@H](C)[C@H](NC(=O)[C@@H]1C[C@H](N)CN1C(=O)CC[C@@H](NS(=O)(=O)c1ccc(NC(=O)c2ccc(C(N)=O)cc2)cc1)C(=O)O)C(=O)N(C)[C@@H](CCC(=O)O)C(=O)NCCCCC(N)=O [Compound 6] | 0.198 |
| CN(C(=O)[C@H](Cc1ccccc1)NC(=O)[C@@H]1C[C@H](N)CN1C(=O)CC[C@@H](NS(=O)(=O)c1ccc(NC(=O)c2ccc(C(N)=O)cc2)cc1)C(=O)O)[C@@H](CCC(=O)O)C(=O)NCCCCC(N)=O [Compound 7] | 0.898 |
| CN(C(=O)[C@H](Cc1c[nH]c2ccccc12)NC(=O)[C@@H]1C[C@H](N)CN1C(=O)CC[C@@H](NS(=O)(=O)c1ccc(NC(=O)c2ccc(C(N)=O)cc2)cc1)C(=O)O)[C@@H](CCC(=O)O)C(=O)NCCCCC(N)=O [Compound 8] | 3.15 |
| CC(C)C[C@H](NC(=O)[C@@H]1C[C@H](N)CN1C(=O)CC[C@@H](NS(=O)(=O)c1ccc(NC(=O)c2ccc(C(N)=O)cc2)cc1)C(=O)O)C(=O)N(C)[C@H](C(=O)NCCCCC(N)=O)C(C)C [Compound 10] | 0.107 |
| CC(C)C[C@H](NC(=O)[C@@H]1C[C@H](N)CN1C(=O)CC[C@@H](NS(=O)(=O)c1ccc(NC(=O)c2ccc(C(N)=O)cc2)cc1)C(=O)O)C(=O)N(C)[C@@H](CC(C)C)C(=O)NCCCCC(N)=O [Compound 11] | 0.109 |
| CC(C)C[C@H](NC(=O)[C@@H]1C[C@H](N)CN1C(=O)CC[C@@H](NS(=O)(=O)c1ccc(NC(=O)c2ccc(C(N)=O)cc2)cc1)C(=O)O)C(=O)N(C)[C@@H](Cc1ccccc1)C(=O)NCCCCC(N)=O [Compound 13] | 0.0784 |
| CC(C)C[C@H](NC(=O)[C@@H]1C[C@H](N)CN1C(=O)CC[C@@H](NS(=O)(=O)c1ccc(NC(=O)c2ccc(C(N)=O)cc2)cc1)C(=O)O)C(=O)N(C)[C@@H](Cc1ccc(O)cc1)C(=O)NCCCCC(N)=O [Compound 14] | 0.0897 |
| CC(C)C[C@H](NC(=O)[C@@H]1C[C@H](N)CN1C(=O)CC[C@@H](NS(=O)(=O)c1ccc(NC(=O)c2ccc(C(N)=O)cc2)cc1)C(=O)O)C(=O)N(C)[C@@H](CO)C(=O)NCCCCC(N)=O [Compound 15] | 0.108 |
| CC(C)C[C@H](NC(=O)[C@@H]1C[C@H](N)CN1C(=O)CC[C@@H](NS(=O)(=O)c1ccc(NC(=O)c2ccc(C(N)=O)cc2)cc1)C(=O)O)C(=O)N1CCC[C@H]1C(=O)NCCCCC(N)=O [Compound 16] | 0.119 |
| CC(C)C[C@H](NC(=O)[C@@H]1C[C@H](N)CN1C(=O)CC[C@@H](NS(=O)(=O)c1ccc(NC(=O)c2ccc(C(N)=O)cc2)cc1)C(=O)O)C(=O)N(C)[C@@H](CC(=O)O)C(=O)N1CCC[C@H]1CC(N)=O [Compound 17] | 0.199 |
| CC(C)C[C@H](NC(=O)[C@@H]1C[C@H](N)CN1C(=O)CC[C@@H](NS(=O)(=O)c1ccc(NC(=O)c2ccc(C(N)=O)cc2)cc1)C(=O)O)C(=O)N(C)[C@@H](CC(=O)O)C(=O)N1CCC[C@H]1C(N)=O [Compound 18] | 0.135 |

Target: T1, MMP2
Test: Inhibitory effects on human MMP2 (Method 1), enzyme assay with MOCAc-Pro-Leu-Gly-Leu-A2pr(Dnp)-Ala-Arg-NH2 substrate, 96-well
Type: biochemical
Settings: Test Example No. 1-1 (Method 1, 96-well)
Method: In a reaction solution [50 mmol/L Tris-HCl (pH 7.5), 150 mmol/L NaCl, 10 mmol/L CaCl2, 0.05% Brij L23], 100 μg/mL human recombinant MMP2 enzyme and 1 mmol/L 4-Aminophenylmercuric acetate were mixed together, and reacted at 37° C. for 60 minutes. The human MMP2 activated through the reaction was poured into a 96-well microplate to reach a final concentration of 0.7 or 7 ng/mL.

| Compound | IC50 [nM] |
| --- | --- |
| CC(C)C[C@H](NC(=O)[C@H](CCN)NC(=O)[C@H](CC(=O)O)NC(=O)[C@@H](CCCCNC(=O)[C@@H](CCCCN)NC(=O)[C@@H](CCCCN)NC(=O)[C@@H](CCCCN)NC(=O)CCCCCCCCCCCCCCC(=O)O)NC(=O)CCCNS(=O)(=O)c1ccc(Oc2ccccc2)cc1)C(=O)N(C)[C@@H](CCC(=O)O)C(=O)N1CCC[C@H]1CC(N)=O [Compound 911] | 3.1 |
